# Assay results from the supplement of paper PMC8728848.
# This is one part of the list.
# B1: MGL6A (Homo sapiens) (protein)
# chain: MTRTYENFQYLENKVKVQGFKNGPLPLQSLLQRLCSGPCHLLLSLGLGLLLLVIICVVGFQNSKFQRDLVTLRTDFSNFTSNTVAEIQALTSQGSSLEETIASLKAEVEGFKQERQAVHSEMLLRVQQLVQDLKKLTCQVATLNNNGEEASTEGTCCPVNWVEHQDSCYWFSHSGMSWAEAEKYCQLKNAHLVVINSREEQNFVQKYLGSAYTWMGLSDPEGAWKWVDGTDYATGFQNWKPGQPDDWQGHGLGGGEDCAHFTPDGRWNDDVCQRPYHWVCEAGLGQTSQESH
# What was measured:
# Test in all cases: glycan array binding signal (z-score within array); higher = stronger binding
# Details in all cases: glycan notation: IUPAC condensed, linker removed; mutation: H262T
# [1] = biological target: Neu5Ac(a2-3)Gal(b1-4)GlcNAc(b1-2)Man(a1-3)[Neu5Ac(a2-6)Gal(b1-4)GlcNAc(b1-2)Man(a1-6)]Man(b1-4)GlcNAc(b1-4)GlcNAc
# Summary of the method: (§1)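 Glycan array data came from 3228 arrays in the Consortium for Functional Glycomics database, and only arrays with an available protein sequence were kept. Glycan names were put into IUPAC-condensed notation, and columns mapping to the same glycan were averaged. The binding signal is a within-array Z-score, averaged across arrays of one protein sequence run at different concentrations or buffers and across linkers. A negative Z-score can be read as non-binding.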
# [2] = biological target: Neu5Ac(a2-3)Gal(b1-4)GlcNAc(b1-2)[Neu5Ac(a2-3)Gal(b1-4)GlcNAc(b1-4)]Man(a1-3)[GlcNAc(b1-4)][Neu5Ac(a2-3)Gal(b1-4)GlcNAc(b1-2)[Neu5Ac(a2-3)Gal(b1-4)GlcNAc(b1-6)]Man(a1-6)]Man(b1-4)GlcNAc(b1-4)GlcNAc
# Summary of the method: as §1
# [3] = biological target: Neu5Ac(a2-3)Gal(b1-4)GlcNAc(b1-2)[Neu5Ac(a2-3)Gal(b1-4)GlcNAc(b1-4)]Man(a1-3)[GlcNAc(b1-4)][Neu5Ac(a2-3)Gal(b1-4)GlcNAc(b1-4)Man(a1-6)]Man(b1-4)GlcNAc(b1-4)GlcNAc
# Summary of the method: as §1
# [4] = biological target: Neu5Ac(a2-3)Gal(b1-4)GlcNAc(b1-2)[Neu5Ac(a2-3)Gal(b1-4)GlcNAc(b1-6)]Man(a1-6)[Neu5Ac(a2-3)Gal(b1-4)GlcNAc(b1-2)Man(a1-3)][GlcNAc(b1-4)]Man(b1-4)GlcNAc(b1-4)GlcNAc
# Summary of the method: as §1
# [5] = biological target: Neu5Ac(a2-3)Gal(b1-4)GlcNAc(b1-3)Gal
# Summary of the method: as §1
# [6] = biological target: Neu5Ac(a2-3)Gal(b1-4)GlcNAc(b1-3)Gal(b1-3)GlcNAc
# Summary of the method: as §1
# [7] = biological target: Neu5Ac(a2-3)Gal(b1-4)GlcNAc(b1-3)Gal(b1-4)GlcNAc
# Summary of the method: as §1
# [8] = biological target: Neu5Ac(a2-3)Gal(b1-4)GlcNAc(b1-3)Gal(b1-4)GlcNAc(b1-2)Man(a1-3)[Neu5Ac(a2-3)Gal(b1-4)GlcNAc(b1-3)Gal(b1-4)GlcNAc(b1-2)Man(a1-6)]Man(b1-4)GlcNAc(b1-4)GlcNAc
# Summary of the method: as §1
# [9] = biological target: Neu5Ac(a2-3)Gal(b1-4)GlcNAc(b1-3)Gal(b1-4)GlcNAc(b1-3)Gal(b1-4)GlcNAc
# Summary of the method: as §1
# [10] = biological target: Neu5Ac(a2-3)Gal(b1-4)GlcNAc(b1-3)Gal(b1-4)GlcNAc(b1-3)Gal(b1-4)GlcNAc(b1-2)Man(a1-3)[Neu5Ac(a2-3)Gal(b1-4)GlcNAc(b1-3)Gal(b1-4)GlcNAc(b1-3)Gal(b1-4)GlcNAc(b1-2)Man(a1-6)]GalNAc
# Summary of the method: as §1
# [11] = biological target: Neu5Ac(a2-3)Gal(b1-4)GlcNAc(b1-3)Gal(b1-4)GlcNAc(b1-3)GalNAc
# Summary of the method: as §1
# [12] = biological target: Neu5Ac(a2-3)Gal(b1-4)GlcNAc(b1-3)Gal(b1-4)GlcNAc(b1-3)[Neu5Ac(a2-3)Gal(b1-4)GlcNAc(b1-3)Gal(b1-4)GlcNAc(b1-6)]GalNAc
# Summary of the method: as §1
# [13] = biological target: Neu5Ac(a2-3)Gal(b1-4)GlcNAc(b1-3)Gal(b1-4)GlcNAc(b1-6)[Gal(b1-3)]GalNAc
# Summary of the method: as §1
# [14] = biological target: Neu5Ac(a2-3)Gal(b1-4)GlcNAc(b1-3)Gal(b1-4)[Fuc(a1-3)]GlcNAc
# Summary of the method: as §1
# [15] = biological target: Neu5Ac(a2-3)Gal(b1-4)GlcNAc(b1-3)GalNAc
# Summary of the method: as §1
# [16] = biological target: Neu5Ac(a2-3)Gal(b1-4)GlcNAc(b1-3)[Neu5Ac(a2-3)Gal(b1-4)GlcNAc(b1-6)]GalNAc
# Summary of the method: as §1
# [17] = biological target: Neu5Ac(a2-3)Gal(b1-4)GlcNAc(b1-6)GalNAc
# Summary of the method: as §1
# [18] = biological target: Neu5Ac(a2-3)Gal(b1-4)GlcNAc(b1-6)[Gal(b1-3)]GalNAc
# Summary of the method: as §1
# [19] = biological target: Neu5Ac(a2-3)Gal(b1-4)GlcNAc(b1-6)[Neu5Ac(a2-3)Gal(b1-3)]GalNAc
# Summary of the method: as §1
# [20] = biological target: Neu5Ac(a2-3)Gal(b1-4)GlcNAc6S
# Summary of the method: as §1
# [21] = biological target: Neu5Ac(a2-3)Gal(b1-4)[Fuc(a1-3)]GlcNAc
# Summary of the method: as §1
# [22] = biological target: Neu5Ac(a2-3)Gal(b1-4)[Fuc(a1-3)]GlcNAc(b1-2)Man
# Summary of the method: as §1
# [23] = biological target: Neu5Ac(a2-3)Gal(b1-4)[Fuc(a1-3)]GlcNAc(b1-3)Gal
# Summary of the method: as §1
# [24] = biological target: Neu5Ac(a2-3)Gal(b1-4)[Fuc(a1-3)]GlcNAc(b1-3)Gal(b1-4)GlcNAc
# Summary of the method: as §1
# [25] = biological target: Neu5Ac(a2-3)Gal(b1-4)[Fuc(a1-3)]GlcNAc(b1-3)Gal(b1-4)[Fuc(a1-3)]GlcNAc(b1-3)Gal(b1-4)[Fuc(a1-3)]GlcNAc
# Summary of the method: as §1
# [26] = biological target: Neu5Ac(a2-3)Gal(b1-4)[Fuc(a1-3)]GlcNAc(b1-3)GalNAc
# Summary of the method: as §1
# [27] = biological target: Neu5Ac(a2-3)Gal(b1-4)[Fuc(a1-3)]GlcNAc(b1-6)[Gal(b1-3)]GalNAc
# Summary of the method: as §1
# [28] = biological target: Neu5Ac(a2-3)Gal(b1-4)[Fuc(a1-3)]GlcNAc(b1-6)[Neu5Ac(a2-3)Gal(b1-3)]GalNAc
# Summary of the method: as §1
# [29] = biological target: Neu5Ac(a2-3)Gal(b1-4)[Fuc(a1-3)]GlcNAc6S
# Summary of the method: as §1
# [30] = biological target: Neu5Ac(a2-3)Gal6S(b1-4)GlcNAc
# Summary of the method: as §1
# [31] = biological target: Neu5Ac(a2-3)Gal6S(b1-4)[Fuc(a1-3)]GlcNAc
# Summary of the method: as §1
# [32] = biological target: Neu5Ac(a2-3)GalNAc
# Summary of the method: as §1
# [33] = biological target: Neu5Ac(a2-3)GalNAc(b1-4)GlcNAc
# Summary of the method: as §1
# [34] = biological target: Neu5Ac(a2-3)[GalNAc(b1-4)]Gal(b1-4)Glc
# Summary of the method: as §1
# [35] = biological target: Neu5Ac(a2-3)[GalNAc(b1-4)]Gal(b1-4)GlcNAc
# Summary of the method: as §1
# [36] = biological target: Neu5Ac(a2-3)[GalNAc(b1-4)]Gal(b1-4)GlcNAc(b1-3)GalNAc
# Summary of the method: as §1
# [37] = biological target: Neu5Ac(a2-3)[Neu5Ac(a2-6)]GalNAc
# Summary of the method: as §1
binder,measurement,setting,value
B1,glycan array binding signal (z-score),[1],-0.173
same,glycan array binding signal (z-score),[2],-0.172
same,glycan array binding signal (z-score),[3],-0.174
same,glycan array binding signal (z-score),[4],-0.173
same,glycan array binding signal (z-score),[5],-0.217
same,glycan array binding signal (z-score),[6],-0.175
same,glycan array binding signal (z-score),[7],-0.176
same,glycan array binding signal (z-score),[8],-0.22
same,glycan array binding signal (z-score),[9],-0.175
same,glycan array binding signal (z-score),[10],-0.169
same,glycan array binding signal (z-score),[11],-0.178
same,glycan array binding signal (z-score),[12],-0.174
same,glycan array binding signal (z-score),[13],-0.183
same,glycan array binding signal (z-score),[14],-0.175
same,glycan array binding signal (z-score),[15],-0.178
same,glycan array binding signal (z-score),[16],-0.214
same,glycan array binding signal (z-score),[17],6.48
same,glycan array binding signal (z-score),[18],-0.17
same,glycan array binding signal (z-score),[19],-0.173
same,glycan array binding signal (z-score),[20],-0.174
same,glycan array binding signal (z-score),[21],-0.18
same,glycan array binding signal (z-score),[22],-0.168
same,glycan array binding signal (z-score),[23],-0.173
same,glycan array binding signal (z-score),[24],-0.168
same,glycan array binding signal (z-score),[25],-0.175
same,glycan array binding signal (z-score),[26],-0.138
same,glycan array binding signal (z-score),[27],-0.16
same,glycan array binding signal (z-score),[28],-0.153
same,glycan array binding signal (z-score),[29],-0.163
same,glycan array binding signal (z-score),[30],-0.173
same,glycan array binding signal (z-score),[31],-0.177
same,glycan array binding signal (z-score),[32],-0.17
same,glycan array binding signal (z-score),[33],-0.169
same,glycan array binding signal (z-score),[34],-0.074
same,glycan array binding signal (z-score),[35],-0.174
same,glycan array binding signal (z-score),[36],-0.172
same,glycan array binding signal (z-score),[37],-0.174
